From the RNAGym collection of RNA variant scans (doi:10.7554/elife.90254) come the findings set out here.

The source gives no read counts; variants with many changes may rest on few reads.

B1: LINE1-mini (parent)
chain: GGCAGAGCUCAACACAGCGUGGCAAAGUGGCUGUGGCUAGACUGCC

Variants of B1 are the subject of this series. Kind of series: self-cleavage, relative activity (ratio to wild type); higher = more cleavage; in vitro, sequencing; the parent is a self-cleaving ribozyme.
For the variant C10G G19U G36U G44U, the self-cleavage was 0. As for A14G G21C U43A, the self-cleavage was 0.11. Next, C3G A14U G30C U32A: 0.37; A11C A16U U32G: 0.01. The same measure for U9G G17U U28G G29A: 0.02; for G17A G21C G22C C31G: 0.04. For the variant A14G C31U A41U, the self-cleavage was 0.03. Take G5A C13U A16U: the self-cleavage worked out at 0.34. Next, C8A G17A A26C C46U: 0.11; A4G G5U G19A C37G U38A: 0.05.

A6G C8U A26U G27A C46U: the self-cleavage is 0.21. The same measure for U9A A25G C45U: 0.14; for G1C G5A U20C: 0; for C13U U28G G40C C46U: 0.07.

In the case of C23U A24U G33A, the self-cleavage stood at 0.15. Next, A12U G17C C23U: 0.22; C3A A12G A16C A39U: 0.01; G22U A24U C37G A41U: 0.04. The same measure for A26C G36A U38C: 0.05; for G17A G21U G30C G44C: 0.03. The same measure for G2U A4G A6G C10A A11G G29U G40U: 0.01; for C13G C37U C46U: 0.18; for G1U C13U C18A: 0.01. As to A4C A12C C15A G17A G40C C45U, the self-cleavage worked out at 0.03. As to A4U C8G C45A, the self-cleavage turned out to be 0. Next, G7U C10G A25C U38A: 0.01; G1C G7C G17U G19C G22A G30C C37A: 0.01. The same measure for G7C A16U G17U C31G G36C G40C C45A: 0; for A4C A25G A41U: 0.15; for G5A G33U U34G A39G C46U: 0.03.

With A11C A14C A16G C18U U20A A24C, the self-cleavage turned out to be 0.

With A16U A25U G36A C45U, the self-cleavage came to 0.05. Next, G1C C23U G30C: 0.48; G5U G36A C37U: 0.01; A6G A12G C42U: 0.03. The same measure for G29C G35U A41G: 0.01. The same measure for C13G C31A A39G: 0.02; for G36U A39U C42U C45G: 0; for G2U G21U U32A: 0. For the variant G7U C13A A26U U28A U34G, the self-cleavage came to 0.14. On to G7U C10A G40A, for which the self-cleavage turned out to be 0.01. The same measure for C3G G7U C15G C18U C23U G27A A39G: 0.06; for C15A A24U C46G: 0; for C10A A16U G33A A39U: 0.01. On to C10G C23G U34C, for which the self-cleavage amounted to 0.01. The same measure for G19C A26G U38G: 0.01.

For the variant A4C A14C C15G U20C G35C G40C, the self-cleavage was determined as 0.

For the variant G5U A14G G19U G35C U43A, the self-cleavage worked out at 0.02.

A25U C31A U34G: the self-cleavage was determined as 0.07. Next, A4U U9A C13A C15U A26U G29U U34G G44C: 0.26; C18A U28C U32A C46U: 0.04; C3G C13A U28G U34C: 0.17.

As to C3G G5A A11G U43C, the self-cleavage was 0. The same measure for A4U G27C U43G C45A: 0.31; for A4G C13A G29C: 0.05; for G2U A6C U9G A12U C31U: 0.01. The same measure for A14G C18U A26U: 0.01; for C8G A39U C42G C45U: 0. Next, G1A A11U G33A C46U: 0.06; A6G U28A C37U A41C C46A: 0.04; G7A G30C G33U G36U: 0.38. For the variant G2C A25G G40U, the self-cleavage stood at 0.26. Next, C13G G19U U20G G33A C45U: 0; C23G G29U G30A: 2.34; C3A G29A G30A: 0.23.

As to C8G A11U A16C G19U A41U, the self-cleavage came out at 0.01. Next, C8U G29U C42U G44U: 0.11. The same measure for C10A A12C C37U A39C: 0; for A4U U9G G27U C31A U34A G44A: 0.01.

In the case of C15A A24G G27U, the self-cleavage amounted to 0.09. Next, C3A C8A G30A U38C: 0.91.

With A14C G35U C37G C42G G44A, the self-cleavage was found to be 0.08. Next, G22C A24U G29C A41C: 0.02.

For the variant G21U A39C C45G, the self-cleavage was found to be 0.21. As for A16C G30C C31U G33A G36U C46U, the self-cleavage was 0.01.

For the variant C23G G27U C42G, the self-cleavage was 0.05. The same measure for A4C A11U G21A G27U C31U: 0.02. As for A25U U32A C37U, the self-cleavage came out at 0.08.

In the case of C3G A14U C31G C45A, the self-cleavage came out at 0.04. The same measure for G2U A12G C23G: 0.01; for C10A A16G G21C C37A A39C: 0.01; for A4U G19A A24U: 0.1. In the case of G17A G27A U28C G40U A41U, the self-cleavage was determined as 0.01. Next, A4G C8A A12U C15G A25C: 0.06; G1A G2U C18U G30A U32C: 0.09; G27U G29C C45A: 0.48. Turning to A6C A16U G17C, the self-cleavage worked out at 0.08. For the variant A25C U28G A41C, the self-cleavage was determined as 0.05.

In the case of G2A A11C C15A A39U, the self-cleavage was 0.08. The same measure for C8U A11C C15U G17A C37G C42G: 0.01; for C15A A25C A39C G44A: 0.02. The same measure for A11U C42G U43C: 0.03; for C10A G21A C23U U28G: 0.01. The same measure for G7C G21U A24U G44A: 0.19; for C10A C13U A14C: 0.04.

With A12U A25U U34C C37U C45A, the self-cleavage was 0.01. In the case of G17A U28A C46A, the self-cleavage is 0.15. For the variant A11U C18G G19A A26U G44A, the self-cleavage is 0.01. Next, A11C A12U G17C G30C C37G A41U: 0; C10G C15G A24G G27C G30A G36U U38G: 0; A24C U32A C37G G40U: 0.01. The same measure for G2U C18G G21A G36C U38A: 0.01.

Regarding C8A G30A A41C, the self-cleavage came out at 0.12. The same measure for A11G G29C U34C G36A G40C: 0.01; for C8G A25U C42G: 0.06; for A11C U38G C45A: 0.01. The same measure for G19C G22U C31A A39G C45A: 0.2; for C23G C31U U32G: 0.02; for A4U G5A C10U G22U: 0.02.

On to C15A A26C G29A, for which the self-cleavage is 0.11. The same measure for A6U G19A G29A A41U C45A: 0.09. The same measure for A16G U32G U38C: 0.03; for C13G U20A U34A G35A: 0.01.

Take A11C G29U U34A A41C: the self-cleavage stood at 0.02. The same measure for A4C C13U C18G U32G U34A: 0.36. The same measure for G2A C18U U28A: 0.25; for G7C G29U U38G: 0.03.

Regarding G7A A26U A39C G44C, the self-cleavage came to 0.11. The same measure for A11U G22U A25G G27C G29C U38G: 0; for G5U C10A G19U U38C: 0; for G22A C23G G36A: 0.11. The same measure for C8G C18U C31G: 0.01; for C13A U32G G40U A41U: 0.14; for A12C C15G A16G C42U: 0. Next, G22C C31A A39U: 0.06; A6C U9A G21U: 0.18. For C23A U28A G29A, the self-cleavage was 0.37.

As to G1U A4G C31A C46A, the self-cleavage amounted to 0.1.

As for G22A A25U C42A, the self-cleavage amounted to 0.04. Next, A11C A12U G40U: 0.08. In the case of G2U C10U A12C G29C C46A, the self-cleavage amounted to 0. Next, C3A C42A U43C: 1.05; G2U A4G G7A: 0.04; A11G C15U G19U U20A G21U G30C: 0.01. Turning to U9A A25U U32G G36A, the self-cleavage is 0.28. The same measure for C10A G22A G36U C37A U38G: 0.

In the case of C31U G40C C45A C46G, the self-cleavage came out at 0.02. The same measure for C8U A16G A24U C45A: 0.03; for A16C G21A G36U C37U: 0.07. The same measure for G1U G2C A4U G17C U28A A41U: 0.01; for G5A G7U C23U C42U: 0.06. For C10U U28A G35A U38C, the self-cleavage was 0.01. The same measure for G5U U9G C18A G21A A25G U28C C31G: 0.03. Take G1A A25G U28G G35A: the self-cleavage was 0.09. Next, C8G G30U G35U A39G: 0. Turning to C15U C23G U38C, the self-cleavage is 2.04. Next, G1C C23U U32G: 0.05; C8U G17U G19C U28A U34A G40C: 0.01; G7U A11U G29C G35A G36A C46U: 0.01.

For A12U C23U G35C G44U, the self-cleavage came to 0.05.

On to C3U G36U U43C, for which the self-cleavage came to 0.07. Next, G21U A24G U38A: 0.84; C8A G36A U43A: 0.47; A4U U9A G19A G35U: 0.39. With G5A A16U G27C G30U, the self-cleavage amounted to 0.04.

Take U9C A24C A39G C42G: the self-cleavage was found to be 0.01. Next, G1U G5C C10A C37A: 0.03; G21U G27C G30A U34C C45A: 0.1; A25U C31A U43C: 0.21. Turning to A11C C18A U38G, the self-cleavage was 0.01. For the variant U9A C10A G17U C18G A41G G44C, the self-cleavage came to 0.02. Next, G7U C13G G27A: 0.01; U32A G33C C46A: 0.05; G1C G5U C13U C18A C31U: 0.01.

Take G5C A6C A39U: the self-cleavage was found to be 0.03. The same measure for A4C A12G A16U C23G G36U U43C: 0.01. Take G5U U9A C23A: the self-cleavage stood at 0.27.
